# From PMC6212790
# The list shows a part of the results. At the low end of the ranking, values are background and their order means little.
# Target: T1, GST-Rok (full length) (UniProt O34857)
# T1 sequence: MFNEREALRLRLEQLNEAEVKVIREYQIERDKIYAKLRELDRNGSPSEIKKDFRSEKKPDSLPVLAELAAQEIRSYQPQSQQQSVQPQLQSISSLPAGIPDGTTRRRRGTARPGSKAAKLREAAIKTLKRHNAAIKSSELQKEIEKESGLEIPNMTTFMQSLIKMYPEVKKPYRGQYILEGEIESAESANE
# Assay: protein binding microarray;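 note: rank score from −0.5 (least bound) to 0.5 (best bound)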
# Settings: Rok is a gene silencer of Bacillus subtilis; high values mean tight binding; most listed sequences are background and not binding sites; double strand, one strand shown
row,Sequence,binding signal [E-score]
1,ATAGTCGG,0.0693
2,CCACCTAG,-0.146
3,GAAACATA,0.277
4,CTAAATCC,0.151
5,CCATTACC,0.177
6,CTGTTTTA,0.142
7,GTTAGGCA,-0.0231
8,CACAGAGC,-0.126
9,AGGAGAAA,0.0433
10,CTGTTAAA,0.04
11,GAGCGAGC,-0.23
12,CATTACCG,0.00887
13,TATACTCA,0.267
14,ATTCTTTC,0.0013
15,CGCACTAC,-0.0229
16,GACAATAC,0.0702
17,ATCATCTA,0.196
18,GGGCCGCA,-0.366
19,GACGCCGC,-0.157
20,AACTTTCG,-0.0406
21,AAGAACAG,-0.257
22,ACCGAGCA,-0.0882
23,GGAGGACA,-0.304
24,CGAATTAG,0.307
25,ACGTACTG,0.146

row,Sequence,binding signal [E-score]
1,AGGTATGA,0.249
2,GACTCCGA,-0.151
3,ATATTCGA,0.331
4,GTCCACAC,-0.0314
5,ATAGAGGG,-0.235
6,AGTACCAG,0.0256
7,TCTTCGAA,-0.0648
8,AAGTGTAG,0.179
9,GGTCTGTA,-0.0472
10,GTAGGTCA,0.101
11,GCTACGCC,-0.283
12,CCGTAGAC,-0.216
13,ATGCAAGA,0.0382
14,CAATTTCG,0.0559
15,ACCATGCT,-0.182
16,TAGGTTCA,0.128
17,ACAACTGC,0.0893
18,CCGTTTAC,-0.126
19,AATCCTGT,0.155
20,CGAGGTAA,0.0494
21,AACGCCCT,-0.11
22,TGCTCACA,-0.000811
23,CCGAGCGC,-0.325
24,CTGGTAAG,0.00927
25,AGCATTCA,0.15

row,Sequence,binding signal [E-score]
1,AACCTCGA,0.11
2,CCCTCTCG,-0.252
3,GGCTAACA,-0.00248
4,ATCACCCC,-0.297
5,ACGTACGG,0.0672
6,CTGGAATA,0.171
7,CGGATTAG,-0.0251
8,CTAGGGTA,0.0773
9,CGCGTTAA,-0.151
10,GGCAGTGA,-0.379
11,ATGTGTAA,0.25
12,GATTCAGC,-0.155
13,CCACAGAG,-0.232
14,CGAATCAA,-0.00317
15,CCAAGCCC,-0.288
16,GGTGACTA,-0.0635
17,GAACCAAC,-0.0463
18,GAGTGACA,-0.0604
19,AACTAACT,0.328
20,TAAAAGAA,-0.0248
21,ACTGCCTC,-0.217
22,ACTTTGAG,-0.13
23,AGGCCTAC,-0.126
24,GAACTCTA,-0.0227
25,AATCAGTA,0.282

row,Sequence,binding signal [E-score]
1,AAGTACCA,0.2
2,CGAAGAGA,0.0981
3,AGTCCCAT,-0.144
4,AACATGGG,-0.0186
5,CGAGGCTA,-0.141
6,CCAGCGAA,-0.2
7,CCCAATAG,-0.0151
8,GCCTCCTA,-0.283
9,ACAGAAAA,0.024
10,GGGAGCAA,-0.0906
11,AGTGCAGG,-0.282
12,GGATAAGA,-0.0593
13,CACCTGCA,-0.143
14,AAGTCGTA,0.03
15,CCAGTCAG,-0.208
16,CATAAGGC,-0.0956
17,ACGCCCAC,-0.215
18,ATGTGACA,0.195
19,AACGTCCT,-0.153
20,GCAACCCC,-0.403
21,CCCGATGC,-0.215
22,AATATTGA,0.287
23,GATCATAA,0.101
24,GATAGTAA,0.406
25,GGCGAAAA,0.071

row,Sequence,binding signal [E-score]
1,TCATGACA,0.0176
2,AGCACTCA,0.019
3,AAGGGTAT,-0.164
4,ATGCATTA,0.241
5,CGCGATAC,0.101
6,CTGCCTCA,-0.111
7,CAAGCCGC,-0.199
8,GGCAGAAC,-0.0215
9,CGGGTAGC,-0.16
10,ACGCAGCT,-0.119
11,CTATAACA,0.202
12,AGGACCAT,-0.0261
13,ACAGATCC,-0.132
14,CGTGGGTC,-0.216
15,CACAGCAA,0.168
16,AGACTTTG,-0.0584
17,CTGTGACC,-0.016
18,GAATCGAA,-0.0491
19,ATCAGGCA,0.000587
20,AAATATCG,0.316
21,CCATGTAG,0.271
22,ACTACAGA,0.218
23,ATGCACCC,-0.0917
24,GAATCATA,0.0306
25,TATCGAAA,0.13

row,Sequence,binding signal [E-score]
1,ATACAGAG,0.0796
2,CTTAGCAA,0.0585
3,AAGGTTCC,-0.376
4,AGCGAGCT,0.0111
5,GCACCTCA,-0.185
6,GCGGGGCA,-0.272
7,AGTGACGG,-0.109
8,GATAGGGA,-0.0361
9,ATGTAGTC,0.162
10,CCCAGACG,-0.218
11,AACCTCTC,-0.197
12,CATCTACC,0.291
13,TACTGCCA,0.0459
14,CCAAGGCA,-0.247
15,ACTGAAAC,-0.223
16,CTCCTCGC,-0.255
17,ACGCTTTA,0.202
18,ATAGGGAG,-0.172
19,CTTCAACC,-0.116
20,TCCGACCA,-0.0461
21,CCTCGGTA,0.0273
22,AGAGTTAC,0.152
23,ACTAATGA,0.13
24,CAATGCGG,-0.0502
25,GCCCATAA,-0.0817

row,Sequence,binding signal [E-score]
1,CCACAGGG,-0.383
2,CAAAAAGG,-0.0977
3,AAAGGAAC,-0.216
4,AATGATAG,0.333
5,ACCGCTAT,0.0622
6,ACTCAGAT,0.2
7,ACGTTCGG,-0.0329
8,ACGGTACG,-0.0886
9,CGCCTGAA,-0.276
10,ATAAGCCG,-0.00629
11,AACCGTAT,0.179
12,TAGTAGGA,0.209
13,GCGAAGAA,0.128
14,CAATAGGG,-0.115
15,AGCGTATA,0.189
16,AATGGTAC,0.314
17,GGAAACTA,0.362
18,CGAGCCCC,-0.303
19,AGTTATCG,0.248
20,CGCACCGC,-0.388
21,GTGTTAAC,0.0282
22,AAATGTGA,0.21
